Experimental data as given in PubChem BioAssay AID1745853 (National Center for Advancing Translational Sciences (NCATS), 2022).
The other results are listed elsewhere or left out. Further columns of the screen follow, without active or inactive calls.

Tests used:
Test in all cases: Primary Screen for Target Class Profiling of Small Molecule Inhibitors of Methyltransferases
[1] = biological target: Glycine N-methyltransferase (Homo sapiens) (UniProt Q14749); settings: purified enzyme, MTase-Glo SAH luminescence; measured here: GNMT inhibition; at 40 µM; stronger effect = lower value
Summary of the method: (§1)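 Each enzyme was reacted with SAM and its substrate, with compounds tested once at 40 uM; SAH formed was read by MTase-Glo luminescence.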

[2] = biological target: Guanidinoacetate N-methyltransferase (Homo sapiens) (UniProt Q14353); settings: purified enzyme, MTase-Glo SAH luminescence; measured here: GAMT inhibition; at 40 µM; stronger effect = lower value
Summary of the method: as §1

[3] = biological target: Histamine N-methyltransferase (Homo sapiens) (UniProt P50135); settings: purified enzyme, MTase-Glo SAH luminescence; measured here: HNMT inhibition; at 40 µM; stronger effect = lower value
Summary of the method: as §1

[4] = biological target: Nicotinamide N-methyltransferase (Homo sapiens) (UniProt P40261); settings: purified enzyme, MTase-Glo SAH luminescence; measured here: NNMT inhibition; at 40 µM; stronger effect = lower value
Summary of the method: as §1

[5] = biological target: Phenylethanolamine N-methyltransferase (Homo sapiens) (UniProt P11086); settings: purified enzyme, MTase-Glo SAH luminescence; measured here: PNMT inhibition; at 40 µM; stronger effect = lower value
Summary of the method: as §1
On the % scale 0 is the no-effect control and ±100 the full control effect.

Compound	activity change, negative = inhibition [1] [%]	activity change, negative = inhibition [2] [%]	activity change, negative = inhibition [3] [%]	activity change, negative = inhibition [4] [%]	activity change, negative = inhibition [5] [%]
CCCN1C(=O)c2cc3occc3n2CC1(C)C(=O)NC1CCCCCCC1 (configuration not stated)	0.39	2.44	-2.25	7.52	-0.06
CCOCCn1nc(C)cc1C(=O)N1CC(C)(C)[C@@](C)(O)C1	-0.15	-2.19	0.764	3.79	-0.878
CC(=O)Nc1ccc2c(c1)C1C=CCC1C(c1ccccc1F)N2 (configuration not stated)	-36.4	-14.6	-17.4	-3.35	-30.5
c1ccc(C2CN3CCSC3=N2)cc1 (configuration not stated)	-7.55	1.53	-8.87	-8.7	3.47
CCc1cnn2c(NCc3ccc[n+]([O-])c3)cc(N3CCCCC3CCO)nc12 (configuration not stated)	3.51	–	11.7	–	–
Cc1nc(CN2C[C@H](C(=O)N3CCN(CCO)CC3)C[C@@H]2c2ccc(F)cc2)cs1	-4.07	1.46	0.86	-6.04	14.5
COc1ccc(C(=O)N[C@@H]2c3ccccc3C3(CCNCC3)[C@H]2OC)c(C)c1	-2.58	-6.36	-3.07	-6.87	-3.5
Cc1ccc(Cn2c(=O)c3ccc(C(=O)NC4CCCC4)cc3n3c(=O)n(CC(N)=O)nc23)cc1	3.68	0.643	3.76	-3.41	1.85
COc1cccc(-c2cccc(C(=O)N3CCN(C(=O)Cc4cccc(Cl)c4)CC3)c2)c1	-4.73	0.963	-0.898	-4.25	-1.87
COc1ccc(C(=O)N(Cc2ccco2)S(=O)(=O)c2ccc3c(c2)n(C)c(=O)n3C)cc1	-2.17	0	4.72	-13.3	-1.11
COc1ccc(C2(O)c3ccccc3NC(=O)C2O)cc1 (configuration not stated)	2.45	0.545	4.92	-13.5	3.37
CCOC(=O)C1CCCN(C(=O)C2CC(c3ccc(F)c(C)c3)CN(C(=O)NC(C)C)C2)C1 (configuration not stated)	-1.82	-1.23	-0.149	-7.21	-2.96
CC1CCCC(NC(=O)C2(C)Cn3c(cc4sccc43)C(=O)N2Cc2ccc(F)cc2)C1C (configuration not stated)	4.83	-0.672	6.16	0.914	3.54
CC(C)CNC(=O)c1ccc2c(=O)n(CC(C)C)c3nn(Cc4ccccc4F)c(=O)n3c2c1	-0.717	4.78	1.33	-1.83	1.81
O=C1CCN(Cc2ccncc2)CCCC(CO)CCN1 (configuration not stated)	-3.15	-1.07	-2.76	-3.1	1.73
O=C1c2ccccc2C(=O)c2cc(S(=O)(=O)NCCO)ccc21	-19.9	1.81	-0.505	0.177	-31.9
CCCCN(CC)CCN1C(=O)c2cc3sc(CC)cc3n2CC1(C)C(=O)NC1CCCCC1 (configuration not stated)	-1.23	4.05	-7.84	8.38	0.798
CCCn1c(=O)c2cc(Cl)ccc2n2c(SCC(=O)Nc3ccc(C(C)C)cc3)nnc12	2.95	0	12.8	3.68	5.75
